The record followed here is PubChem BioAssay AID485344 (National Center for Advancing Translational Sciences (NCATS), 2010).

Out of some 340,000 compounds screened, about 6,900 (2%) were called active. Rule as the data show it: active = inhibition above about 30%; inactive = below that, where a call was filed. This is a selection; strong and weak results do not stand in their true shares. Entries without a call were filed so in the source.

Chain of UniProt P14416 (P14416 whole entry, looked up): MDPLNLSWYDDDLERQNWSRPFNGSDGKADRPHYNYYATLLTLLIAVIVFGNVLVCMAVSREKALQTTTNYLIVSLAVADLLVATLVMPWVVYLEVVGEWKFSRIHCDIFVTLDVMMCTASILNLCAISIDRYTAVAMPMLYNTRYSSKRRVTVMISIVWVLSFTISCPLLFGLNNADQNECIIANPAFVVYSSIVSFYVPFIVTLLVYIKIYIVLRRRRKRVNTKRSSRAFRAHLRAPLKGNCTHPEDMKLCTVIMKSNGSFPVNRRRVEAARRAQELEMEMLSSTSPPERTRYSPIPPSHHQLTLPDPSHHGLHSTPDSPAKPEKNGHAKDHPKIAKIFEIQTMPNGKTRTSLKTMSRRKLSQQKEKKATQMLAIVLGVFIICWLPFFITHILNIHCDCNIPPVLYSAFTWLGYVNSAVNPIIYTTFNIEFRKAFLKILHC

In this assay the target is D(2) dopamine receptor (Homo sapiens) (UniProt P14416). Kind of assay: HTS Assay for Allosteric Antagonists of the Human D2 Dopamine Receptor: Primary Screen for Antagonists. Also: 0% is about no effect. As to conditions: HEK293 TREx D2 cells, calcium flux, dopamine EC80; at 10 µM; stronger effect = higher value. Summed up:
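In this primary screen, negative modulation is detected by tracking calcium flux after an EC80 dopamine challenge in inducible HEK293 T-REx D2 cells preexposed to test compound for 180 s.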
On the technique in general: A change in cytosolic calcium serves as a functional read-out for many receptors and channels.
By inhibition is commonly meant the relative decrease from the control value, in per cent. Regarding `COc1ccc(Cn2nnc(C(=O)Nc3cc(OC)ccc3OC)c2N)cc1`, the inhibition is -8.45%. The same measure for `Cc1ccc(NC(=O)Cn2c(=O)n(Cc3ccco3)c(=O)c3ccc(C(=O)NC4CCCC4)cc32)c(C)c1`: 13.4%. For the compound `COCCCNC(=O)C1CCN(Cc2nc(-c3ccc(OC)c(OC)c3)oc2C)CC1`, the inhibition amounted to 6.69%.

Regarding `Cc1cccc(NC(=O)CCCCCN2C(=O)c3ccccc3C2=O)n1`, the inhibition is active: 34.5%. As to `CCn1c(=O)cc(SCC(=O)NCCc2cc(OC)ccc2OC)c2ccccc21`, the inhibition was found to be 4.59%.

On to `CCOc1ccc(NC(=O)c2c(NCc3ccc(C)o3)sc3c2CCC(C)C3)cc1` (stereo not given), for which the inhibition is 10.8%.

Regarding `Cc1nnc(N2CCC(C(=O)NC3CCCCC3)CC2)c2nn(-c3ccc(Cl)cc3)c(C)c12`, the inhibition came to 0.159%. Take `Cn1c(C(=O)NCCCN2CCN(c3ccccc3F)CC2)cc2c(=O)[nH]c3ccccc3c21`: the inhibition is active: 105%. As for `CCC(=O)N1CCc2cc(S(=O)(=O)CCC(=O)N3CCN(c4cc(C)ccc4C)CC3)ccc21`, the inhibition was 8.09%. With `COc1cccc(NC(=O)CSc2nc3ccccc3n2C)c1`, the inhibition is -7.77%. Next, `CCOc1ccc(NC(=O)c2c(NC(=O)Cc3ccccc3)sc3c2CCC(C)C3)cc1` (stereo not given): -1.8%. Next, `COc1ccc(OC)c(NC(=O)CN(C)S(=O)(=O)c2ccc3[nH]c4c(c3c2)CCCC4)c1`: -13.2%. Next, `COC(=O)c1ccc(OCC2c3cc(OC)c(OC)cc3CCN2C(=O)C(C)C)cc1` (stereo not given): 14.9%; `CCOC(=O)COc1ccc(C)cc1C(=O)c1ccn2nc(-c3ccc(C)cc3)cc2n1`: 7.28%; `O=C(CSc1ncc2c(n1)-c1ccccc1N(Cc1ccccc1)S2(=O)=O)Nc1ccccc1`: 4.34%. On to `COCCNC(=O)c1ccc(CSc2nc3ccncc3n2Cc2ccccc2)cc1`, for which the inhibition was found to be 0.625%. Take `COc1ccc(-c2cc(C#N)nc(N3CCN(C)CC3)n2)cc1`: the inhibition is active: 55%.

In the case of `COc1ccc(C)cc1Nc1nc2cc(Cl)c(Cl)cc2nc1-n1nc(C)cc1C`, the inhibition came out at 9.45%.

On to `COc1ccc(C)cc1NC(=O)CSc1nc(=O)n(Cc2ccncc2)c2c1CCC2`, for which the inhibition was -10.9%. For the compound `Cc1ccc(NC(=O)Cn2c(=O)n(-c3ccccc3)c(=O)c3c4c(sc32)CCCC4)cc1`, the inhibition was -0.324%.

For the compound `COc1ccc(C)cc1NC(=O)NCc1ccc2c(c1)CCN2C(=O)c1ccccc1`, the inhibition turned out to be 11.3%.

With `COc1ccc(C(=O)NCCc2sc(-c3ccc(Cl)cc3)nc2C)c(OC)c1`, the inhibition was -9.6%. The same measure for `Cc1ccc(C)c(CN2C(=O)c3ccccc3S(=O)(=O)c3ccc(C(=O)N4CCN(c5ccccn5)CC4)cc32)c1`: 12.2%. The same measure for `COc1cc(NC(=O)CN2C(=O)COc3ccc(S(=O)(=O)N4CCCCC4)cc32)cc(OC)c1`: -7.93%; for `CCCN1C(=O)C(Cc2nc3ccccc3c(=O)n2-c2ccccc2)c2cc(C)ccc21` (stereo not given): -6.65%; for `CCc1cccc(N2C(=O)N(CC(=O)NCc3cccc(OC)c3OC)c3ccccc3S2(=O)=O)c1`: -2.26%.

`Cc1cc(C)n2nc(SCC(=O)Nc3ccccc3C)nc2n1`: the inhibition was -0.0415%. As for `Cc1ccc(Cl)cc1N1CCN(C(=O)c2cc(S(=O)(=O)N3CCCC3)cn2C)CC1`, the inhibition is -9.7%. Next, `Cc1ccc(Nc2nnc(-c3ccc(C)c(S(=O)(=O)N4CCOCC4)c3)c3ccccc23)c(C)c1`: 22%; `CCc1nc2nc(C)cc(Nc3ccc(OC)cc3OC)n2n1`: -6.09%; `CCC(Cc1ccccc1)NC(=O)Cn1ncc2c3ccccc3n(Cc3ccccc3)c2c1=O` (stereo not given): 3.55%.

Regarding `CCOc1ccc(C(=O)c2cn(Cc3ccc(Cl)cc3)c3cc(OC)c(OC)cc3c2=O)cc1`, the inhibition was 18.3%. `Cc1oc(-c2ccc(Cl)cc2)nc1CN1CCC(C(=O)NCCCN2CCN(c3cccc(Cl)c3)CC2)CC1`: the inhibition was -7.59%. The same measure for `Cc1ccc2c(c1)NC(=O)C(CC(=O)Nc1ccccc1Cl)O2` (stereo not given): -1.62%; for `O=C1c2[nH]nc(-c3ccccc3O)c2C(c2ccccc2F)N1Cc1ccncc1` (stereo not given): 12.6%; for `CCOC(=O)Cc1ccc(NC(=O)NCc2cccn2Cc2ccccc2)cc1`: 11.7%. Next, `COc1ccc(-n2c(=O)c3sc4ccccc4c3n(CC(=O)Nc3ccccc3F)c2=O)cc1`: 2.34%; `Cc1ccc(NC(=O)CSc2nc(-c3cccs3)nc3cc(=O)[nH]n23)cc1`: -2.21%; `COc1ccc(CC(=O)NCC(c2ccc(N(C)C)cc2)N2CCOCC2)cc1` (stereo not given): 5.01%. The same measure for `Cc1ccc(-n2ncc3c(NCCCn4ccnc4)ncnc32)cc1Cl`: 11.1%; for `Cc1cc(F)ccc1S(=O)(=O)Nc1ccc2c(c1)CCCN2C(=O)c1cccs1`: -14.2%.

`COc1ccc(N2C(=O)C(CC(=O)Nc3ccc(F)cc3)N(Cc3ccc4c(c3)OCO4)C2=O)cc1` (stereo not given): the inhibition stood at 20.9%. As for `COC(=O)c1cnc(NCc2ccc(F)cc2)c2ccccc12`, the inhibition was 13.2%. Next, `CCN(CC)C(=O)Cn1c(=O)nc(-c2ccccc2F)c2cc(Cl)ccc21`: 11%; `CCCNC(=O)N1[C@H](c2ccc(C)s2)[C@@H](C)C(=O)[C@@H](C)[C@@H]1c1ccc(C)s1`: 8.29%. The same measure for `COc1ccc(NC(=O)CSc2nc(-c3ccco3)cc(C(F)(F)F)n2)cc1`: -5.05%; for `COc1ccc(NC(=O)Cn2c(=O)n(Cc3ccc(C(=O)NCc4ccccc4Cl)cc3)c(=O)c3ccccc32)cc1OC`: -0.25%; for `CCCN1Cc2cccc(C(=O)Nc3cc(C)cc(C)c3)c2C1=O`: -3.91%. Turning to `CC(=O)Nc1ccc(C)cc1-c1nc2ccccc2n(CC(=O)Nc2cc(Cl)ccc2C)c1=O`, the inhibition stood at 7.41%. In the case of `CCn1c(=O)c(=O)n(CC)c2cc(N3CCCCC3)c(NC(=O)c3cccc(F)c3)cc21`, the inhibition is -28%. The same measure for `Cc1nnc2c(Nc3cccc(O)c3)nc3ccccc3n12`: 4.62%; for `Cc1cc(=O)oc2cc(OCC(O)CN3CCN(c4ccc(F)cc4)CC3)ccc12` (stereo not given): active: 75.9%; for `CCC(C)NC(=O)c1ccc2c(=O)n3c(nc2c1)CCCCC3` (stereo not given): 16.9%. As for `Cc1ccc(NC(=O)Cn2nnc3sc(-c4ccccc4)cc3c2=O)cc1Cl`, the inhibition was determined as 12.9%. Next, `COc1ccc(C(=O)NCC2(N3CCN(C)CC3)CCCCC2)cc1`: 4.45%; `COC(=O)c1ccc(Cl)cc1NC(=O)N(Cc1ccc(C)o1)C1CCN(C(C)=O)CC1`: -8.41%; `CCC(CC)c1nn2c(=O)cc(COc3ccc(NC(=O)c4cccc(Cl)c4)cc3)nc2s1`: -9.9%. For the compound `COc1ccc(C)cc1NS(=O)(=O)c1ccc2c(c1)n(C)c(=O)n2C`, the inhibition worked out at 4.08%. Next, `CCc1ccc(NCc2cccn2-c2nnc(N3CCCCCC3)s2)cc1`: 3.48%.

Turning to `CCN1CCN(c2ncc3c(n2)CCN(Cc2ccc(Br)s2)C3)CC1`, the inhibition was determined as 8.56%. `O=C(COC(=O)c1ccc(F)c(S(=O)(=O)N2CCOCC2)c1)c1ccc(Br)cc1`: the inhibition was active: 36.4%.

`O=C(Nc1ccc(OC(F)(F)F)cc1)c1ccc2nc[nH]c2c1`: the inhibition was active: 61.7%. With `COc1ccc(OC)c(-c2cc(C(=O)Nc3cnn(Cc4ccc(Cl)cc4Cl)c3)no2)c1`, the inhibition was determined as 9.81%. Next, `CCOc1ccc(NC(=O)CSc2nnc(CNC(=O)c3c(F)cccc3Cl)o2)cc1`: 10.5%; `COc1ccccc1N1CCN(S(=O)(=O)c2c(C)sc3ncn(CC(=O)Nc4ccccc4F)c(=O)c23)CC1`: -6.94%; `COc1cccc(NC(=O)Cn2c(=O)n(-c3ccc(Cl)cc3)c(=O)c3sc4ccccc4c32)c1`: 3.92%. The same measure for `CCOc1ccc(/C=C/c2nc3ccccc3n2S(=O)(=O)c2ccc(Br)cc2)cc1`: 4.2%; for `COc1ccc([N+](=O)[O-])cc1NC(=O)Nc1ccccc1`: active: 37%; for `O=C(Cn1c(=O)nc(-c2ccccc2)c2cc(Cl)ccc21)NCCc1ccc(Cl)cc1`: -4.79%. `Nc1c(-c2nc(-c3ccncc3)no2)nnn1CC(=O)Nc1ccccc1`: the inhibition was -3.35%.

In the case of `COc1ccccc1CNCCSc1nnnn1C`, the inhibition was -7.02%. As for `COc1ccc(C(=O)N(Cc2ccco2)Cc2ccco2)cc1`, the inhibition turned out to be 14.7%. Next, `Cc1noc(/C=C/c2ccccc2F)c1S(=O)(=O)N1CCC(C(=O)N(C)Cc2ccco2)CC1`: -15.1%; `COC(=O)c1c(N)n(-c2cc(Cl)cc(Cl)c2)c2nc3ccccc3nc12`: -7.14%. The same measure for `COc1ccc2nc(NC(=O)c3cc(=O)c4ccccc4o3)sc2c1`: 10.4%; for `COc1ccc(NC(=O)Cn2c(=O)n(CCc3ccccc3)c(=O)c3ccccc32)cc1`: -1.69%; for `Cc1noc(-c2ccc(NCc3ccccc3)c([N+](=O)[O-])c2)n1`: 13.3%. The same measure for `COc1cccc(CNS(=O)(=O)c2cc3c(cc2C)n(C)c(=O)c(=O)n3C)c1`: -2.46%; for `CCOc1ccc(NC(=O)Cn2nc(-c3ccncc3)ccc2=O)cc1`: 6.12%.

With `CCCCNC(=O)c1c(C)oc2ncn(CC(C)C)c(=O)c12`, the inhibition was -0.787%. Turning to `O=C(c1cccc(Cl)c1)N1CCN(CCc2ccccn2)CC1`, the inhibition amounted to 5.39%.

Turning to `O=C(NCc1nc2cccnc2n1Cc1ccc(F)cc1)c1ccccc1C(F)(F)F`, the inhibition came out at 15.5%. Turning to `Cc1ccccc1OCC(=O)Nc1cc(-c2cccc(Br)c2)nn1-c1ccccc1`, the inhibition was found to be 23.5%. For `Cc1cccc(N2CCN(S(=O)(=O)c3ccc(-c4cnc(C5CC5)o4)cc3)CC2)c1C`, the inhibition is 16.9%.

As to `COc1ccccc1CNC(=O)CC(c1ccc(F)cc1)N1Cc2ccccc2C1=O` (stereo not given), the inhibition came out at 0.264%. Next, `Cc1ccccc1-c1noc(-c2ccc(NCC3CCCO3)c([N+](=O)[O-])c2)n1` (stereo not given): 10.4%; `CCOC(=O)c1cccc(NC(=O)C(C)n2nc(C)c3c(C)n(-c4ccccc4)nc3c2=O)c1` (stereo not given): 6.76%; `Cc1oc(-c2ccccc2F)nc1CS(=O)(=O)CC(=O)N1CCN(c2ccccc2)CC1`: 20.5%. Next, `Cc1ccc([N+](=O)[O-])cc1NC(=O)CN(c1ccccc1)S(=O)(=O)N(C)C`: -7.06%; `COc1ccc(-c2[nH]c(-c3ccc(O)cc3)nc2-c2ccccc2)cc1`: 16.4%; `COC(=O)c1cc(NC(=O)c2cc3c(-c4ccccc4F)nn(C)c3s2)cc(C(=O)OC)c1`: 7.27%.

`COc1ccc(OC)c(S(=O)(=O)NCC(c2ccc(N(C)C)cc2)N2CCOCC2)c1` (stereo not given): the inhibition is 6.87%. Next, `O=C(NCC(c1ccco1)S(=O)(=O)c1cccs1)c1ccccc1` (stereo not given): 3.61%; `Cc1c(Cl)cccc1Nc1nn2c(=O)c3ccccc3nc2s1`: -4.98%. Next, `COC(=O)c1cc2oc3ccccc3c2n1Cc1ccc(C)cc1`: -1.92%.
